Source: PubChem BioAssay AID1963576 (National Center for Advancing Translational Sciences (NCATS), 2024)
Screen size: about 46,000 compounds; about 60 (0.1%) were called active. Not shown: some 3% with an inconclusive outcome. The call rests on the fitted dose curve; in most records, active means well fitted inhibition curve with a large enough effect; inconclusive means small, poorly fitted or top-dose-only effect; inactive means no such curve, though single readings can be large or run the other way. The list shows a part of the results.

Assay: Primary qHTS assay for Inhibitors of ovarian cancer metastasis using an organotypic tumor microenvironment (TME) model. Further: nearly all actives have a fitted effect of over 65% in size.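 On activity change, negative = inhibition: plate controls were DMSO wells for no effect and tomatine positive control wells for full effect.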
Conditions: SKOV3ip1-GFP adhesion/invasion on 3D omental model, fluorescence; series mostly up to 45.8 µM; activity change, negative = inhibition: at the top concentration
Outline: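 Primary human omental fibroblast/mesothelial 3D culture pre-formed 48 h. SKOV3ip1-GFP cells added with compounds (0.36-46 umol/L), incubated 2 h RT/16 h 37 C, fixed; GFP cells quantified at 488/509 nm.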

Activity change, negative = inhibition, inactive:
COc1ccc(OC)c(NC(=O)CSc2nc3ccccc3nc2N2CCCCC2)c1 -0.94%
CCc1ccccc1NC(=O)c1ccc2c(c1)N(Cc1cc(C)ccc1C)C(=O)c1ccccc1S2(=O)=O -5.39%
COC(=O)c1cc2sccc2n1Cc1nc(-c2ccc(Cl)cc2)oc1C 7.8%
Cc1cc(C)n(C(C)CC(=O)NCc2ccc(N(C)C)cc2)n1 (stereo unspecified) 3.82%
CCOCCCn1c(SCC(=O)Nc2ccc(C)cc2)nc2ccccc2c1=O 37.2%
O=C(CSc1nccn1Cc1ccc(Cl)cc1)Nc1ccc2c(c1)OCCO2 0.781%
COc1cccc(C(c2c(O)cc(C)n(Cc3ccco3)c2=O)N2CCN(c3ccccc3)CC2)c1 (stereo unspecified) -2.73%
COc1cc(Cl)c(C)cc1NC(=O)Cn1ncc2c([nH]c3ccccc32)c1=O 1.79%
COc1ccc(CNC(=O)C(C)n2ccc3cc(S(=O)(=O)N4CCCC4)ccc32)cc1OC (stereo unspecified) 7.37%
Cc1cc(C)cc(NS(=O)(=O)c2ccc3c(c2)CCCN3C(=O)C2CCC2)c1 1.51%
O=C(Nc1ccc(Br)cc1F)c1ncoc1-c1ccco1 -2.66%
Cc1oc2ncn(C)c(=O)c2c1C(=O)NCCCN1CCCC(C)C1 (stereo unspecified) -1.71%
COCCCNC(=O)c1ccc2c(=O)n(Cc3ccc(OC)cc3)c(=O)[nH]c2c1 13.8%
O=C(CN1C(=O)COc2ccc(S(=O)(=O)N3CCOCC3)cc21)N1CCN(c2ccccc2)CC1 -3.64%
COC(=O)[C@@H]1CC2=CC(=O)CC[C@]2(C)[C@@]23O[C@@H]2C[C@@]2(C)[C@H](CC[C@@]24CCC(=O)O4)[C@@H]13 -0.985%
CCOc1cc(-c2nc(-c3ccc(Br)cc3)no2)cc(OCC)c1OCC -7.94%
O=C(COc1ccccc1)N(Cc1cccnc1)c1nc2ccc(F)cc2s1 -1.27%
COc1ccc(-c2cc(C(F)(F)F)n3nc(C(=O)NCC45CC6CC(CC(C6)C4)C5)cc3n2)cc1 -2.18%
COc1ccc(CNC(=O)CN(c2cc(C)cc(C)c2)S(=O)(=O)c2c(C)[nH]c(=O)[nH]c2=O)cc1 0.867%
CCOC(=O)c1c(NC(=O)c2cc(C(C)C)on2)sc(C)c1C 9.53%
Cc1cccc(CSc2nc3c(c(=O)[nH]2)C(c2cccc(O)c2)CC(=O)N3)c1 (stereo unspecified) -15.1%
Cc1ccc(S(=O)(=O)C(CNC(=O)c2ccccc2F)c2cccs2)cc1 (stereo unspecified) 5.49%

outcome, inactive:
COc1ccccc1NC(=O)C1=C(C)Nc2nc(SCc3ccccc3C)nn2C1CC(C)C (stereo unspecified)
CCc1ccc2oc(C(=O)Nc3nonc3CC)c(C)c2c1
COc1ccc(-n2ncc(C(=O)N3CCc4ccccc4C3)c2C2CCN(C(=O)OC(C)(C)C)CC2)cc1
Cc1cccc(CN2CCN(CC(=O)NCc3ccc(Cl)cc3)C2=O)c1
